# Source: ChEMBL document CHEMBL4888484, “Replenishing the malaria drug discovery pipeline: Screening and hit evaluation of the MMV Hit Generation Library 1 (HGL1) against asexual blood stage Plasmodium falciparum ,using a nano luciferase reporter read-out” (2022)
# The whole screen tested about 4,800 compounds, of which about 410 (8.5%) showed an effect of 50% or more. The list shows a part of the results.
# Tested on: Plasmodium falciparum
# Assay: Confirmatory screen in NF54 pLDH assay, in single point, at 2uM, 72h
# Format: functional, Erythrocyte
# Settings: timepoint 72 hour
row,Structure (SMILES),% Inhibition [%]
1,O=C(O)c1cc(C=Cc2ccc3ncccc3c2)ncn1,11
2,C=CCOc1ccc(Cl)c(C(=O)N[C@H]2CCS(=O)(=O)C2)n1,3
3,O=C(C1CCCC1)N1CCN(S(=O)(=O)c2ccccc2)CC1,1
4,Cc1cncn1C1CCN(C(=O)C2(Cc3ccccc3)CC3CCC2C3)CC1 (centres undefined),-1
5,CN(Cc1ccccc1)c1nc2ncn(CC(=O)NC3CCCCC3)c(=O)c2s1,-13
6,COc1ccc(N2CCN(c3nccn4nc(-c5cccs5)cc34)CC2)cc1,12
7,CO[C@H]1c2ccccc2C(=O)N1C1CCCCCCCCCCC1,11
8,CCC(=O)Nc1nc2ccc(NS(=O)(=O)c3cccc4nsnc34)cc2s1,6
9,O=C(NCC(N1CCOCC1)C(F)(F)F)C1CC12CCOC2 (centres undefined),14
10,CC(NC(Cc1ccccc1)C(=O)N1CCCCC1)c1ccncc1 (centres undefined),-11
11,Cc1nn(C)c(NC(=O)CCc2c[nH]cn2)c1C,-7
12,COc1cccc(C(=O)Nc2noc(-c3cccc(OC)c3)c2-c2ccc(Cl)cc2)c1,-19
13,O=C(c1ccccc1F)N(Cc1nccn1Cc1c(F)cccc1Cl)C1CC1,-18
14,O=C(NC1CCOCC1)c1ccc(-c2ccc(F)c(F)c2F)cn1,10
15,COc1cc(N2CCn3c(nc4cc(Cl)ccc43)C2)ccc1NC(=O)C1CCCCC1,-13
16,CC(C)CS(=O)(=O)Nc1ccccc1C(N)=O,-4
17,COc1cccc(CNCCCN2CCOCC2)c1OCc1ccc(Cl)cc1Cl,12
18,Cc1nn(-c2ccccc2)c2c1[C@@H](c1ccc(C(F)(F)F)cc1)N(c1ccccc1)C(=O)N2,9
19,Cc1c(NC(=O)C(F)(F)[C@@]2(F)OC(F)(F)C(F)(F)C2(F)F)c(=O)n(-c2ccccc2)n1C,-16
20,CCOC(=O)N1CCN(c2nccn3nc(-c4ccc(OC)c(OC)c4)cc23)CC1,-12
21,C/C(=N\S(=O)(=O)c1ccc(Cl)cc1)Nc1cc(C(C)C)c(O)cc1C,0
22,O=C(O)c1ccc(N(C(=O)c2ccc3c(c2)OCO3)C(=O)c2ccc3c(c2)OCO3)cc1O,15

row,Structure (SMILES),% Inhibition [%]
1,CCCCNC(=O)NCc1nc2ccccn2c1Cl,-14
2,COc1cccc(N2C(=O)N[C@H](C)C2=O)c1,15
3,CCCOc1ccc2c(c1)OCC(C(=O)N1CCC[C@H](C(N)=O)C1)=C2,3
4,CC(=O)N1CCCN(S(=O)(=O)Cc2ccccc2Cl)CCNC(=O)[C@@H]2CCC[C@@H]21,9
5,O=C1NC(=O)c2ccc3c4c(ccc1c24)C(=O)N(c1ccccc1)C3=O,35
6,CN(C(=O)CN(CCO)c1ccc(Br)cc1)C1CC1,2
7,C[C@H]1[C@@H]2[C@@H](O)C([C@H](C)C(=O)NC3CCCCC3)CC[C@@]2(C)CC[C@@H]1NC(=O)CC(C)(C)C (some centres undefined),37
8,N#Cc1c(NC(=O)Nc2cn3ccccc3c2C#N)cn2ccccc12,35
9,O=C(CN1CCC(c2ccc(F)c(F)c2)CC1)NCc1cccnc1,-8
10,Cc1ccc(C)c(NC(=O)CN2CCC3(CC2)NC(c2ccc(OC(F)(F)F)cc2)=NO3)c1,6
11,COCC(=O)N(C1CCOCC1)[C@H]1CCCN(Cc2c[nH]c3ccc(OC)cc23)C1,-6
12,NC(=O)CN1CCC2(CC1)NC(c1ccc(OC(F)(F)F)cc1)=NO2,5
13,COc1cc(Br)ccc1N,6
14,Cc1c2c(C(F)(F)F)cc(=O)n(CCC(=O)Nc3ncc(Cl)cc3Cl)c2nn1C,-7
15,CCn1c(=O)c(N2CCC(C(=O)N3CCN(c4ccccc4F)CC3)CC2)nc2cccnc21,-9
16,CC(C)Cc1nsc(NCc2ccc(O)cc2O)n1,0
17,Cc1cc(C)c2c(c1)[C@@H](C)CC(C)(C)N2C(=O)c1sc2ccccc2c1Cl,5
18,C[C@@H](C(=O)NCCN1CCCCC1)N1C(=O)COc2ccc(C(=O)COc3ccccc3Cl)cc21,-20
19,Cc1ccc(Cn2c(=O)c(N3CCC[C@H](C(=O)NCc4ccccc4F)C3)nc3ccccc32)cc1,13
20,CC(C)CN1C(=O)CC[C@@H](C(=O)NCCCN2CCOCC2)[C@@H]1c1cccnc1,-17
21,COc1ccc(C(C)=O)c(O[C@@H](C)C(=O)NCC(F)(F)F)c1,-9
22,O=S(=O)(Nc1ccc(O)c2cccnc12)N1CCCC1,36

row,Structure (SMILES),% Inhibition [%]
1,c1ccc2c[n+](Cc3ccc4ccccc4n3)ccc2c1,47
2,CC(C)(C)c1cc2c(NCC3=CCOCC3)nccn2n1,9
3,N#Cc1cccnc1-n1cc(NC(=O)NCCC2(O)CCC2)cn1,-8
4,COc1ccc(-c2nn(C3CCCC3)c(-c3ccc(OC)c(OC)c3)c2Cl)cc1OC,-1
5,CCOCCCNC/C=C/c1ccccc1,2
6,CCN(C(=O)Cn1c(=O)n(Cc2ccc(F)cc2)c(=O)c2ccccc21)c1cccc(C)c1,1
7,Cc1ccc(N(C)CC(=O)N2CCC2)c(Br)c1,-7
8,O=C(Nn1cnc2ccccc2c1=O)c1cnccn1,5
9,Cn1nc(C(=O)Nc2nnc[nH]2)ccc1=O,-6
10,Cc1nonc1N(Cc1ccc(Cl)cc1Cl)S(=O)(=O)c1ccccc1,-10
11,Cn1nc(C(=O)NCc2ccc(F)cc2)cc1C(=O)NCc1ccc(F)cc1,2
12,O=C(c1ccccn1)N1CC(n2cnnc2[C@@H]2CCCO2)C1,-7
13,COCCN1C(=O)C[C@H](Nc2ccc3c(c2)CCC3)C1=O,12
14,CCCNC(=O)C1=Cc2ccccc2OC=C1,-12
15,CCC(C)(C)c1ccc(OCC(=O)Nc2cccc(C(=O)CC(=O)Nc3ccc(Oc4ccccc4)cc3)c2)c(C(C)(C)CC)c1,1
16,NC(=O)C1C(=O)NC(c2ccccc2)C=C1c1ccccc1 (centres undefined),6
17,O=S(=O)(Cc1ccon1)N1CCN(Cc2cccnc2)CC1,6
18,CS(=O)(=O)Cc1ccc(Cl)cc1NC1CCCC(C2CC2)C1 (centres undefined),9
19,CC1(C)C[C@](C)(c2ccc(N)cc2)c2cc(N)ccc21,-13
20,COC(c1ccc(-c2ccc(OC3CC3)cc2)cc1)C(C)N (centres undefined),-14
